Reference: the RNAGym collection of RNA variant scans (doi:10.1073/pnas.2313332121)
Variants at the floor of the assay are shown more often than the library holds them.

B1: TPR 5TU (parent)
chain: GGAUCUUCUCGAUCUAACAAAAAAGACAAAUCUGCCACAAAGCUUGAGAGCAUCUUCGGAUGCAGAGGCGGCAGCCUUCGGUGGCGCGAUAGCGCCAACGUUCUCAACUAUGACACGCAAAACGCGUGCUCCGUUGAAUGGAGUUUAUCAUG

Variants of: B1
Assay: polymerase ribozyme fitness, log enrichment relative to wild type (log ratio); higher = more active; in vitro selection for triplet polymerase activity
In short: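 In triplicate, a single round of in vitro selection was run on each mutant library, PCR-built and transcribed, covering one subunit of a heterodimeric triplet polymerase ribozyme. Frozen incubation at −7 °C followed annealing with a biotinylated primer, partner subunit and triplets, and extended constructs were then gel-excised, streptavidin-captured and taken through RT-PCR. Fitness is the logarithm of genotype enrichment over wild-type enrichment, from inverse-variance-weighted replicate averages of Illumina-sequenced inputs and outputs. […] only genotypes with ≥10 input reads and ≥1 read per output were kept.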

Variant	polymerase ribozyme fitness (log ratio)
A19U C96A	-0.531
A19G C54G C63A A91C C118G	≤ -4.2
A19U A40G G124A	-4.11
A19U C72U G88C G152U	≤ -4.2
A19U C35U C51U G58A C87G	≤ -4.2
A19U A30C C95G	≤ -4.2
A19G G48U A52G C85A A89C A122C	≤ -4.2
A19U A21U U44A A64C C85G C95U	≤ -4.2
A19U C43G G50A G70A C105U G112A A120G G143A C149A	≤ -4.2
A19U C87U G141U U146C	0.666
A19U A20U C38U U53A G88C C116U G136C U148A	≤ -4.2
A19U A26G A122G	≤ -4.2
A19U A91C C129A	≤ -4.2
A19G U55A G68A G71A C103U	≤ -4.2
A19U C27A A30G U55A C93A C95U C99G	≤ -4.2
A19G G25U C36U U56C C96G U144A	≤ -4.2
A19U A26G C75U C85U A89G C95A	≤ -4.2
A19U C54A G70A U82A U134G U139A	≤ -4.2
A19G C27U U55A C75G C95U A110U A113G C114A G141C	≤ -4.2
A19U A24C G42A A52G C57U C96G C108A G126A U144C	≤ -4.2
A19G G48U G74A G88U G94C G143U	≤ -4.2

Variant	polymerase ribozyme fitness (log ratio)
A19U A37C G42A A52C C96A	≤ -4.2
A19U C35G C57U U90C C96A C132U	≤ -4.2
A19U A22G C32G C85A G88A C105U U151A	≤ -4.2
A19U A21C C54U U134A	≤ -4.2
A19U A52U A97G	-2.59
A19U A23C C54A C76U U78G C93G A119G	≤ -4.2
A19G G25C G59A C93U	≤ -4.2
A19U A21U C72G A89C C96G G143A	≤ -4.2
A19G U44G A60U C87G G140A A147U	≤ -4.2
A19G U55A C57U U77G C93G A115G A122U U146C	≤ -4.2
A19G G59U C85U C95A	-1.78
A19G A52U U53A U82C C87G	≤ -4.2
A19U A73G G86U	-1.03
A19U A28G A41C A49C U109G U145A C149G	≤ -4.2
A19U C87G C99U G140C	≤ -4.2
A19G G80U C95G C96A	≤ -4.2
A19U A29U C32G G65C A97U U101A U104G A113U C132U G136A	≤ -4.2
A19U A24U A52G C54A A73U C79U C103A U130G G140C G141A	≤ -4.2
A19U A89U G136U	-3.55
A19U A20C A23U C27G G62C	≤ -4.2
A19G C32A G46C C54U G59C A106U G128C	≤ -4.2

Variant	polymerase ribozyme fitness (log ratio)
A19U A30U U56A G62C C76U	≤ -4.2
A19G C57G U78G G86C U90G C123A	≤ -4.2
A19U A39G G74U C85G G128C C129U	≤ -4.2
A19G U53G G86U A113U	≤ -4.2
A19G G83A C85A C96U A97C A119G	≤ -4.2
A19U A20U C27G A30C C79U C103A C114U	≤ -4.2
A19U C27A A64C G68C C87A A119U A150C	≤ -4.2
A19U C85U	-0.763
A19U C85A	-1.33
A19U A52G C54A C93G C125A U145G	≤ -4.2
A19U A39C A52C C57U A60C C87U	≤ -4.2
A19G A49C G50C U61G G92C A138C	≤ -4.2
A19U C87A A89C	≤ -4.2
A19G C69G C76U U82G G88A G141U A150C	≤ -4.2
A19U A28U U53G A137G	≤ -4.2
A19U A21C G74U G84A C114U U139G	≤ -4.2
A19U A30C A49G C54U C118A A147U U151G	≤ -4.2
A19G G59U C76A C96U	-1.25
A19U A20C G59A A89U C95U G126C	-0.274
A19U A21C	-0.908
A19G C35U U53G C54A G71A U145C	-2.47

Variant	polymerase ribozyme fitness (log ratio)
A19U A22U A47C G80A G86A C87A C95U U104G A120U	≤ -4.2
A19U A26U C38U C96U C125G	≤ -4.2
A19U C87A G124A G133A	≤ -4.2
A19U A26C G46U C93A C95G C108A U151G	≤ -4.2
A19U C43U U45A A52C C57U G70A C93A C95G C116G C125G G133U U144G A150C	≤ -4.2
A19U A22U G74A C96U A115U C116G G141U	≤ -4.2
A19U A40C C79A G83A C85G C116A	≤ -4.2
A19U A26C C38U A89G A98U A107C	≤ -4.2
A19U C36A G70A C95U U148A	≤ -4.2
A19U C54U C114U U144G A150C	≤ -4.2
A19G G83C C95G	≤ -4.2
A19U A20U A29U C38A A52G U56A	≤ -4.2
A19G G42A G94A U104C A142G	≤ -4.2
A19G U56A A120G U151A	≤ -4.2
A19G G58A C85A G94C U102G A142C	≤ -4.2
A19U C27A U33G U53A U56A G67A C69U G94U G128U G140A G143U	≤ -4.2
A19G U45A C57A G88U C95U C105U A150C	≤ -4.2
A19G C85U G94U G141U	0.14
A19U A30U C93U U101A	≤ -4.2
A19U A26G C72G G88A	≤ -4.2
A19U C54U A73C G83U G94U C116G U144A	≤ -4.2
